According to paper PMC6919601, “Identification of Plasmodium dipeptidyl aminopeptidase allosteric inhibitors by high throughput screening” (PLoS ONE, 2019):
About 230 (0.21%) of roughly 110,000 compounds showed an effect of 50% or more. Some of the results follow.

Biological target: DPAP1 (Plasmodium falciparum, UniProt Q8IIJ9)
Test: primary screen, percent inhibition; read by cleavage of a fluorogenic dipeptide substrate; higher = more effect of the substance
Design: species or system P. falciparum D10 trophozoite lysates; single well
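Further: 30 min substrate incubation versus DMSO and 10 µM JCP410 controls.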

DPAP1, sequence (Q8IIJ9 whole entry, looked up): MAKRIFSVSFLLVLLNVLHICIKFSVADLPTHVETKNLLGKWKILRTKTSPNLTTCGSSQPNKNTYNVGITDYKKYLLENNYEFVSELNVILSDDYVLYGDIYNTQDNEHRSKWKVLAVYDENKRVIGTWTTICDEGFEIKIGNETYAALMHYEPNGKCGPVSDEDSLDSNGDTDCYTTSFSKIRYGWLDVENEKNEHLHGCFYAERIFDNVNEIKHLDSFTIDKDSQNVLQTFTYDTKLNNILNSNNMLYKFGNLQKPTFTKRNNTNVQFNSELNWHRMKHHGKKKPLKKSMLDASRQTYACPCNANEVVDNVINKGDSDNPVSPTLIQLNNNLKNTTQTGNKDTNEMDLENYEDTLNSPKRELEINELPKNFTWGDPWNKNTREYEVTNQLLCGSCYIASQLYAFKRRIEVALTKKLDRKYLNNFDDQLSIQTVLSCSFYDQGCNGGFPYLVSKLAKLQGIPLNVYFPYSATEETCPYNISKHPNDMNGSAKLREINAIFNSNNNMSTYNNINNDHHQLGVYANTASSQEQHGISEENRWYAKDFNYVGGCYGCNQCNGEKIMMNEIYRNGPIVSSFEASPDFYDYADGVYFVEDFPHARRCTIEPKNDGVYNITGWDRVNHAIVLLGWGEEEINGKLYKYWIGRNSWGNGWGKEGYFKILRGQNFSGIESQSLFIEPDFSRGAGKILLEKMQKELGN

SMILES	% Inhibition @ 10 uM [%]
Cc1cc2oc(=O)cc(C)c2c2occ(-c3ccc(F)cc3)c12	-1.15
COc1ccc(OC)c(C2C(C#N)=C(N)Oc3nc(C)nc(O)c32)c1 (centres unmarked)	-1.22
COc1ccc(OCCn2cc(C(C)=O)c3ccccc32)cc1	-3.5
CC(=O)Nc1ccc(S(=O)(=O)N(C2CCCC2)C2CCCC2)cc1	7.15
CCc1nn(CC(=O)NCCCN(C)Cc2ccccc2)c(=O)c2cc3occc3n12	1.38
COc1cc(F)c(C[C@H](NC(=O)OCc2ccccc2)C(=O)NCC#N)c(F)c1	-0.406
CC1CCN(S(=O)(=O)c2cc(Cl)ccc2Br)CC1	-6.08
CCOC(=O)c1cc2c(=O)n3ccccc3nc2n(CC2CCCO2)/c1=N/C(=O)/C=C/c1ccccc1 (centres unmarked)	-5.57
CN(Cc1ccco1)S(=O)(=O)c1nnc(NC(=O)c2cccs2)s1	-0.959
Clc1cccc(OCCN2CCCC2)c1	0.565
COc1ccc(C(=O)NC(Cc2ccccc2)c2ccc3c(c2)OCCCO3)cc1 (centres unmarked)	-1.28
Cc1cc(N2C(=O)c3cc(Cl)c(Cl)cc3C2=O)no1	0.408
CCCCc1nnc2sc(NC(=O)COc3ccc(C)cc3)nn12	1.39
COc1ccccc1CNC(=O)CCCn1nc(C)n2ccnc2c1=O	3.3
CC1=C(CCN2CCCCC2CO)C(C)(C)CCC1 (centres unmarked)	-0.0648
COc1ccc(CNC2CCN(C)CC2)c(OC)c1	-2.21
CC(C)(C)C(=O)NCCc1nc2ccccc2n1CC(=O)c1ccccc1	-2.01
Cc1cc(=O)n(Cc2cc(=O)n3ccccc3n2)c2c1c(C)nn2-c1cccc(F)c1	1.81
COc1ccc(NC(=O)CN(c2cccc3ccccc23)S(C)(=O)=O)cc1Cl	-4.13
Cc1ccc(NC(=O)COc2ccccc2)cc1O	-0.318
O=S(=O)(NCC(c1ccccc1)N1CCNCC1)c1ccccc1 (centres unmarked)	-2.28
COc1ccc(C(=O)NCCN2CCN(C(=O)c3ccc(OC)cc3)CC2)cc1	-2.76
CCCOc1ccc(C2C(=O)N(C3CCC(C)CC3)CC(=O)N2C2CCCC2)cc1OC (centres unmarked)	2.79
O=C1NC(=O)C(=Cc2c[nH]c3ccc(OCc4ccccc4)cc23)C(=O)N1	-1.1
O=C1CCCN1CC(CN1CCOCC1)Sc1nnnn1-c1ccccc1 (centres unmarked)	-3.06
CC(C)CCNC(=O)[C@H](Cc1ccccc1)N1Cc2ccccc2C1=O	-2.25

SMILES	% Inhibition @ 10 uM [%]
O=C1NC(=S)N/C1=C\c1cccc2ccccc12	-1.2
CCOc1ccc(CCNS(=O)(=O)c2ccc(-c3ccc(O)nn3)o2)cc1OCC	5.57
COc1ccc(CCNC(=O)CCc2c(C)c3ccc(O)cc3oc2=O)cc1OC	0.895
CCC(C)NC(=O)CN1C(=O)C(c2ccccc2)Oc2cccnc21 (centres unmarked)	-2.39
O=C(O)c1cc(C(=O)O)c2ccccc2n1	-6.32
COc1ccc(Cl)cc1C(=O)NCc1cn(C)nc1C	0.115
CC1=C(C(=O)OCC(F)(F)F)C(c2ccc(F)cc2)NC(=O)N1 (centres unmarked)	-0.0804
CC(C)Oc1ccc(C(CC(=O)O)NC(=O)CCCc2ccccc2)cc1 (centres unmarked)	-2.5
NC(=O)c1cc(S(=O)(=O)N(Cc2ccc(F)cc2)Cc2cccnc2)cs1	0.879
COc1ccccc1N1CCN(C(=O)C2CCCO2)CC1 (centres unmarked)	-5.6
CC(C)(C)c1cc(Br)cc(C=O)c1O	-1.77
Cc1ccc(C(=O)/C=C\Nc2cc(C)on2)cc1	-1.06
CC1=NN2C(=N)/C(=C\c3ccc(OCc4cc(=O)n5nc(C)sc5n4)c(Cl)c3)C(=O)N=C2S1	-9.6
CC(C)c1ccc(NC2CC(=O)N(c3ccc(F)cc3)C2=O)cc1 (centres unmarked)	-4.06
COc1ccc(Br)cc1CN1CCSCC1	1.38
O=C([C@H](Cc1ccccc1)N1Cc2ccccc2C1=O)N1CCN(Cc2ccccc2)CC1	4.54
CC(=O)N1CCC(=O)N1c1ccccc1	-0.744
COCCNC(=O)c1cc2sc(Cl)cc2n1C	0.291
CC(=O)Nc1ccc(NC(=O)CCN2C(=O)c3ccccc3C2=O)cc1	1.7
O=C(NCc1cccs1)C1CC(=O)N(c2ccc(F)cc2)C1 (centres unmarked)	1.71
CN1CCC(N2CCN(c3ccc([N+](=O)[O-])cc3)CC2)CC1	3.18
CCOC(=O)c1c(NC(=O)CC2NCCNC2=O)sc2c1CCCC2 (centres unmarked)	1.72
Clc1ccccc1CNCc1ccc2c(c1)OCO2	-17.9
COc1ccc(Br)cc1C1N(c2ccccn2)C(=O)C2CCCN21 (centres unmarked)	1.23
Cn1c(C(=O)NCCc2ccc(Cl)cc2)cc2sccc21	-3.08
CSc1ccc(CN2CCCC(O)C2)cc1 (centres unmarked)	-3.56

SMILES	% Inhibition @ 10 uM [%]
Cc1ccc(C(=O)NCCc2ccc(S(N)(=O)=O)cc2)cc1C	-7.83
O=C(CSc1nc2ccccc2[nH]1)NCCC1=CCCCC1	4.61
CCOc1ccccc1CNC(=O)c1c(C)nn(-c2ccc(F)cc2)c1-n1cccc1	-8.99
CCCc1[nH]nc2c1C(c1ccccc1OC(F)F)C(C#N)=C(N)O2 (centres unmarked)	0.673
CC(C)(C)OC(=O)N[C@@H](CSCc1ccccc1)C(=O)NCC#N	-0.214
CC1=NN(C(=O)COc2ccccc2C)C(O)(c2cccnc2)C1 (centres unmarked)	4.05
S=C(Nc1ccc(Cl)cc1)N1CCN(Cc2ccccc2)CC1	-4.32
CCC(O)c1nc2ccccc2n1CCOc1ccccc1Cl (centres unmarked)	-4.91
COCC(=O)Nc1nc2ccccc2s1	5.3
CC1=C(C(=O)OCCOC(C)C)C(c2ccccc2C(F)(F)F)CC(=O)N1 (centres unmarked)	-1
CNCc1ccccc1Sc1ccc(O)c(O)c1	-7.1
Cc1cc(-c2ccccc2)n(-c2ccc(C(=O)NC(C)C)cc2)n1	0.389
COc1ccccc1N1CCN(C(=O)CSCc2ccccc2C)CC1	-5.34
CCOc1cc2c(cc1OC)C(c1ccccc1F)NCC2 (centres unmarked)	2.49
COc1cccc(OC)c1C(=O)N1CCCCCC1	-3.35
O=C1C2C3C=CC(O3)C2C(=O)N1c1ccc(Cl)cc1Cl (centres unmarked)	-0.67
Cn1cnc2c(=O)oc3ccc(S(=O)(=O)N4CCN(c5ccccn5)CC4)cc3c21	-0.602
COc1ccccc1-n1c(CCC(=O)O)ccc1-c1ccccc1	6.73
Cc1ccc(NC(=O)C2COc3ccccc3O2)cc1C (centres unmarked)	11.6
CC1CCc2c(sc3nc(-c4cccs4)oc(=O)c23)C1 (centres unmarked)	3.48
CCOc1cc(CNCCc2ccc(Cl)cc2)ccc1OC	-0.999
N=C1/C(=C\c2ccc(SCc3ccco3)o2)C(=O)N=C2SC(Cc3ccccc3)=NN12	0.458
O=C(O)CCc1nc2cc(C(=O)O)ccc2[nH]1	-2.14
CCC1=NN(C(=O)c2ccccc2OC)C(O)(c2ccc(OC)cc2)C1 (centres unmarked)	-1.02
CCN(CC)CCN(CC)Cc1ccc(SC)cc1	-0.0953
Oc1cc(C(F)(F)F)nn1-c1nc2ccccc2s1	6.12

SMILES	% Inhibition @ 10 uM [%]
CCOc1ccc2nc(SCC(=O)N3CCN(S(=O)(=O)c4ccc(C)cc4)C3)sc2c1	1.74
O=C(CN1C(=O)c2ccccc2S1(=O)=O)N1CCC(Cc2ccccc2)CC1	2.95
CC1CCN(c2nn3nnnc3c3ccccc23)CC1	0.977
O=C(c1ccccc1)c1ccc(C(=O)N2CCN(c3nc4ccccc4o3)CC2)o1	-2.63
O=C(NCc1ccco1)c1ccc(-n2ccc3ccccc32)s1	3.45
Cc1nn(C)cc1CNC(=O)c1ccc(F)cc1	-3.05
COC(=O)C1=CN(C(C)C)C=C(C(=O)OC)C1c1ccccc1OC(C)C	-3.46
CCOC(=O)c1c(C=O)c2ccccc2n1Cc1ccccc1F	-3.53
Cc1ccc(-c2nn(-c3ccccc3)cc2C=O)cc1	1.76
OCCN1CCN(CC(c2ccccc2)c2ccccc2)CC1	-1.5
Cc1nc2c3c(-c4ccccc4)nc(N4CCCCC4)nc3nn2c(C)c1CCC(=O)O	-2.87
CCCSc1oc(-c2ccccc2)nc1S(=O)(=O)c1ccccc1	-8.16
CCCN1CCN(C(=O)c2cc3ccc4cccnc4c3[nH]2)CC1	-4.41
CC(=O)ON1C(=O)C(c2ccccc2)=C(c2ccccc2)C1=O	82
Cc1cc2c(c(SCC(=O)NCc3ccccc3Cl)n1)C(=O)OC2	-0.834
CCCNC(=O)Cn1ncc2c3ccccc3n(Cc3ccccc3F)c2c1=O	3.4
Cc1cc(C)cc(-n2nnc(-c3nc(-c4ccc(Cl)cc4)no3)c2N)c1	5.95
Cn1c2ccccc2c2cnn(CC(=O)NC3CCCC3)c(=O)c21	-7.6
O=C1[C@H]2CC=CC[C@H]2C(=O)N1CNc1ccc(F)cc1	-0.68
Cc1oc2ccc(O)c(CN3CCCC3)c2c1C(=O)OCCOc1ccccc1	-4.82
CC1CCN(S(=O)(=O)c2ccc(NC(=O)C(F)(F)F)cc2)CC1	-0.759
Cc1cc(C)c2oc(C(=O)N(Cc3ccccc3)C3CCS(=O)(=O)C3)cc(=O)c2c1 (centres unmarked)	6.56
COc1ccccc1C1SCC(=O)Nc2c1c(C)nn2C1CCOC(C)(C)C1 (centres unmarked)	2.89
Cc1ccc2occ(/C=C/C(=O)c3ccccc3O)c(=O)c2c1	-2.14
Cc1ccccc1C(=O)Nc1ccc(F)cc1F	-1.25
O=C(NCc1cccnc1)c1cc(-c2ccc(O)cc2)on1	-2.65
